# Measurements from PubChem BioAssay AID1865 (National Center for Advancing Translational Sciences (NCATS), 2009).
# Hit rate of the full screen: of about 280,000 compounds, about 540 (0.19%) were called active. The inconclusive results got no clear call from the source; some entries with a clear call stand among them for comparison. Calls follow the shape of the dose curve; as a rule, active = well fitted activation curve with a large enough effect; inconclusive = small, poorly fitted or top-dose-only effect; inactive = flat fitted curve, though single readings scatter. A potency beside an inconclusive call is a rough fit, not a confirmed value.
# Assay: Quantitative High-Throughput Screen for Regulators of Epigenetic Control; also: nearly all actives have a fitted effect of over 60% in size
# Settings: murine LDR cells, GFP reporter derepression, 30 h; series mostly up to 53.9 µM
# Summary of the method: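 Murine LDR cells carrying a silenced, genomically integrated CMV-driven GFP reporter were exposed to compound for 30 hours at 37 C. After PBS washes, GFP-positive cells (20–120 um objects) were counted by laser-scanning microplate cytometry.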
# Potency is read from the fitted curve at half-maximal effect; tags tell the direction and shape of the fitted curve.
row,SMILES,Potency
1,COc1cc(Cl)c(C)cc1Nc1nnc(-n2nc(C)cc2C)c2ccccc12,"inconclusive: 12.6 µM [activator, partial curve]"
2,COc1cccc(NC(=O)C2CCCN2S(=O)(=O)c2ccc3nc(-c4ccccc4)[nH]c3c2)c1 (stereo not drawn),inactive
3,Cc1[nH]nc2c1/C(=N/O)CC(c1ccccc1)C2 (stereo not drawn),inactive
4,Cc1ccc(C)c(N2CCN(C(=O)C3CCCN(S(=O)(=O)c4cccc5nonc45)C3)CC2)c1 (stereo not drawn),"inconclusive: 35.5 µM [activator, single point]"
5,CC1CCN(c2c(NCc3ccc(C(=O)NCCc4ccc(Cl)cc4)cc3)c(=O)c2=O)CC1,"inconclusive: 35.5 µM [activator, single point]"
6,Cc1ccc(NC(=O)Cn2ncc3c4ccccc4n(Cc4ccccc4)c3c2=O)cc1Cl,"inconclusive: 35.5 µM [activator, single point]"
7,CCN1CCN(C(c2cccnc2)c2cc(Cl)c3cccnc3c2O)CC1 (stereo not drawn),"inconclusive: 35.5 µM [activator, single point]"
8,COC(C/C=C/C(=O)COCc1ccccc1)OC,"inconclusive: 31.6 µM [activator, single point]"
9,Cc1cc(N=Cc2c(O)n(-c3ccc4c(c3)OCO4)c(=O)c3ccccc23)ccn1,"inconclusive: 15.8 µM [activator, single point]"
10,CCC(=O)OCCNc1cc(Sc2nc3ccccc3[nH]2)c2nonc2c1[N+](=O)[O-],"inconclusive: 5.62 µM [activator, single point]"
11,O=[N+]([O-])c1ccc(Sc2cccc3cccnc23)c([N+](=O)[O-])c1,"inconclusive: 0.631 µM [activator, partial curve, poor fit]"
12,Cc1csc(NC(=O)CSc2nnc(-c3ccoc3C)n2CCc2ccccc2)n1,"inconclusive: 1 µM [activator, full curve]"
13,CNc1nnc(-c2cc3ccccc3oc2=O)s1,"inconclusive: 25.1 µM [activator, single point]"
14,COc1ccc2c(c1)C(=C(C#N)C#N)C(=O)N2CCc1ccccc1,"inconclusive: 35.5 µM [activator, single point]"
15,CCOC(=O)/C(=C\c1ccc(OC(F)F)cc1)C1=Nn2c(nnc2-c2ccc(Cl)cc2)SC1,"inconclusive: 5.62 µM [activator, single point]"
16,CCC(=O)N1CCc2cc(S(=O)(=O)NCCC(=O)NCc3ccc(OC)cc3)ccc21,inactive
17,C=CC(C1=CC(=O)C(OC)=CC1=O)c1ccccc1 (stereo not drawn),inactive
18,CC(=O)Nc1ccc(N2CCc3c(C)c(C#N)c4nc5ccccc5n4c32)cc1,"inconclusive: 20 µM [activator, single point]"
19,Cc1ccc(/C=N/NC(=O)Cc2c[nH]c3ccccc23)c(C)c1,inactive
20,Cn1cccc1/C=C1\SC(=O)N(c2ccc(O)cc2)C1=O,"inconclusive: 28.2 µM [activator, single point]"
21,CCN(CC)CCn1c2ccc(Cl)cc2c2nc(C)sc21,"inconclusive: 15.8 µM [activator, single point]"
22,COC(=O)NC(/C=C/c1ccccc1)C(C(C)=O)C(=O)OC (stereo not drawn),inactive
23,N#CC(C(=O)NC1CCCCC1)c1nc2ccccc2nc1N1CCOCC1 (stereo not drawn),"inconclusive: 31.6 µM [activator, single point]"

row,SMILES,Potency
1,O=C(Nc1ccc(-c2nc3ccccc3o2)c(O)c1)c1cc(-n2cnnc2)ccc1Cl,"inconclusive: 28.2 µM [activator, single point]"
2,Cc1ccc(CNC(=O)CCCCCn2c(=O)c3sccc3n(CC(=O)Nc3ccc(C)c(F)c3)c2=O)cc1,"inconclusive: 14.1 µM [activator, single point]"
3,COc1ccccc1CN1CCNC(=O)C1CC(=O)NCCOc1cccnc1 (stereo not drawn),"inconclusive: 35.5 µM [activator, single point]"
4,O=C(Nc1cc(Cl)cc(Cl)c1)c1coc(=O)c(Br)c1,"inconclusive: 35.5 µM [activator, single point]"
5,COc1ccc(S(=O)(=O)N2CN(Cc3ccco3)c3nc4ccccc4nc32)cc1,"inconclusive: 35.5 µM [activator, single point]"
6,Cc1ccc(NC(=O)c2cnc(SCC(=O)N3CCOCC3)n(C)c2=O)cc1C,"inconclusive: 31.6 µM [activator, single point]"
7,COc1cc2c(cc1/C=C1/NC(=O)N(c3ccccc3)C1=O)OCO2,"inconclusive: 31.6 µM [activator, single point]"
8,CCOc1ccc(C(=O)c2cn(CC(=O)Nc3ccc4c(c3)OCCO4)c3ccc(F)cc3c2=O)cc1,inactive
9,Cc1cc(C)nc(S/C=C/C(=O)c2ccccc2F)n1,"inconclusive: 5.62 µM [activator, single point]"
10,CN(C(=O)CSc1nc(C2CCCC2)nc2c1c(=O)n(C)c(=O)n2C)c1ccccc1,"inconclusive: 2.24 µM [activator, partial curve]"
11,CCCCN1C(=O)c2[nH]nc(-c3ccccc3O)c2C1c1ccc(OCc2ccccc2)cc1 (stereo not drawn),"inconclusive: 28.2 µM [activator, single point]"
12,CN1/C(=C\C=C(C#N)C#N)C(C)(C)c2ccccc21,active: 25.1 µM
13,CCN(CC)c1ccc2cc(-c3nc(-c4cccs4)no3)c(=O)oc2c1,active: 7.08 µM
14,Cc1c(C(=O)N2CCC(C)CC2)c(S(=O)(=O)NCc2ccc(Cl)cc2)c(C)n1C,"inconclusive: 35.5 µM [activator, single point]"
15,CN(C)c1ccc(/C=C/C(O)=C2/C(=O)N(C)C3(C)CC2c2ccccc2O3)cc1 (stereo not drawn),"inconclusive: 35.5 µM [activator, single point]"
16,CCCCCCNC(=O)N[C@@H](C(=O)NCCC[C@H]1CN2C(=NC[C@@H]2Cc2ccccc2)N1CCc1cccc(OC)c1)C(C)C,"inconclusive: 35.5 µM [activator, single point]"
17,COC(=O)c1ccc2c(c1)N(CC(=O)Nc1ccc(OC)c(Cl)c1)C(=O)c1ccccc1S2,"inconclusive: 17.8 µM [activator, single point]"
18,CCN(c1ccccc1)S(=O)(=O)c1nnc(NC(=O)c2ccccc2)s1,inactive
19,CC(C)(C)OC(=O)C(Cl)(C(=O)OC(C)(C)C)c1ccc2nnnn2n1,"inconclusive: 31.6 µM [activator, single point]"
20,Cc1ccc(NC(=O)C(C)OC(=O)c2ccc(NS(=O)(=O)c3ccc(F)c(F)c3)cc2)cc1 (stereo not drawn),inactive
21,O=C(CSc1nnc2c(n1)[nH]c1ccc(S(=O)(=O)N3CCOCC3)cc12)Nc1ccccc1Cl,"inconclusive: 35.5 µM [activator, single point]"
22,CCn1c(-c2ccc(N)cc2)nc2ccccc21,inactive
23,CCC1=C2CC[C@H]3C(=O)N(c4ccccc4)C(=O)[C@H]3[C@H]2[C@@]2(C)C(=NCc3ccccc3)OC(=O)N2C1=O,"inconclusive: 17.8 µM [activator, partial curve]"

row,SMILES,Potency
1,Cc1cc(Br)ccc1NC(=O)C1CCCN(S(=O)(=O)c2cccc3nonc23)C1 (stereo not drawn),"inconclusive: 35.5 µM [activator, single point]"
2,O=C(Cc1ccccc1)NNc1ccc2ccccc2c1,inactive
3,Cc1cc(NC(=O)Nc2nnc(N(C)C3CCCCC3)s2)ccc1Br,inactive
4,COc1ccccc1/C=C/c1nc(C#N)c(N2CCN(C)CC2)o1,"inconclusive: 35.5 µM [activator, single point]"
5,Cc1occc1-c1n[nH]c(=S)n1CC(C)C,inactive
6,Cc1ccc(-n2c(-c3cnccn3)n[nH]c2=S)c(Br)c1,inactive
7,CCOc1cc(CNC2CCCC2)cc(Cl)c1OCc1ccc(F)cc1,inactive
8,CC1(C)CC(=S)Nc2ccccc2S1,inactive
9,COc1ccc(/C=N/NC(=O)Nc2cccc3nsnc23)c(OC)c1,"inconclusive: 12.6 µM [activator, single point]"
10,COc1cc2c(cc1NC(=O)CSc1ccccn1)oc1ccccc12,inactive
11,C/C(=N\NC(N)=S)c1ccc(Cl)s1,"inconclusive: 28.2 µM [activator, single point]"
12,C=CCn1c(=O)/c(=C/c2cc(OC)c(OC)c(OC)c2)s/c1=C(/C#N)c1nc2ccccc2n1C,"inconclusive: 35.5 µM [activator, single point]"
13,CCOc1ccc(/C=C2/C(=O)N(c3ccc(OC)cc3)C(=S)N2CC(=O)OC)cc1OCC,"inconclusive: 35.5 µM [activator, single point]"
14,CCOC(=O)c1ccc(NC(=O)C(=O)NCc2ccc(/C=C(/C#N)C(=O)NCCOC)o2)cc1,"inconclusive: 31.6 µM [activator, single point]"
15,Cc1nn(C)c(C)c1C1Nc2ccccc2C(=O)N1O (stereo not drawn),inactive
16,COc1ccc(C(=O)N/N=C/c2ccc(OC)c(CN3CCc4cc(OC)c(OC)cc4C3C)c2)cc1 (stereo not drawn),inactive
17,C=CCn1c(SCc2ccc3c(c2)OCO3)nc2scc(-c3ccco3)c2c1=O,inactive
18,O=C(/C=C/c1ccc(O)cc1)c1ccccc1O,"inconclusive: 35.5 µM [activator, single point]"
19,CCOC(=O)c1c(NC(=S)Nc2ccccc2)sc2c1CCN(CCc1ccccc1)C2,"inconclusive: 22.4 µM [activator, single point]"
20,O=C(NCc1ccco1)c1cccn2c(=O)c3cc4ccccc4cc3nc12,active: 15.8 µM
21,O=c1c(/C=C(\O)c2ccccc2)nc2ccccc2n1-c1ccccc1,"inconclusive: 31.6 µM [activator, single point]"
22,COc1ccc(S(N)(=O)=O)cc1C(=O)NCCCN1CCN(c2cccc(Cl)c2)CC1,inactive
